Laboratory results reported in publication PMC12820563, “FoxP3 forms a head-to-head dimer in vivo and stabilizes its multimerization on adjacent microsatellites”.
Some of the results follow.

Target: T1, MBP-FoxP1dN (Mus musculus, UniProt P58462 326-579)
T1 sequence: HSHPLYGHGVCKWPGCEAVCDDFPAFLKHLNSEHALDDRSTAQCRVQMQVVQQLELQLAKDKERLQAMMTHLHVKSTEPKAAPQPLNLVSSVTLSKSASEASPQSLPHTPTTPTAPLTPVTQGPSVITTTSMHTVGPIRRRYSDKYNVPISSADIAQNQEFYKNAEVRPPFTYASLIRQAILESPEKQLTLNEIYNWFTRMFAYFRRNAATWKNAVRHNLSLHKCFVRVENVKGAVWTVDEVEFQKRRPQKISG
Assay: PD-seq (MBP pull-down with sequencing); 20 mM Tris-HCl pH 7.5, 100 mM NaCl, 1.5 mM MgCl2, 0.4 uM protein, 0.1 uM dsDNA library, 30 min, room temperature, amylose pull-down; high values mean tight binding
Settings: protein: recombinant; tags: His6-MBP; chain copies: 2; dsDNA, one strand shown
Outline: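 Binding is reads-per-million enrichment of pull-down over input, with replicates pooled. It comes from 30 min room-temperature incubation in Tris pH 7.5 buffer with NaCl and MgCl2 of 0.4 µM His6-MBP-tagged, N-terminally truncated mouse FoxP3 or FoxP1 fragment from E. coli with 0.1 µM Klenow-filled degenerate double-stranded DNA library, followed by amylose resin capture, three washes and Illumina sequencing of the released DNA.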

Row | Sequence | binding signal
1 | GATGATTGTTCTCCCAGCTGATGAATTACCACCTTCGAGTAAACAAATTTTCCTAATCTTTCTGTTCAAGCGCCATCTAC | 0.981 RPM ratio (pull-down/input)
2 | GATGATTGTTCTCCCAGCTGATGAATTTAACTACTCGAGTAAACAAATTTTCCTAATCTTTCTGTTCAAGCGCCATCTAC | 0.942 RPM ratio (pull-down/input)
3 | GATGATTGTTCTCCCAGCTGATGAATTCTATTTGTCGAGTAAACAAATTTTCCTAATCTTTCTGTTCAAGCGCCATCTAC | 2.3 RPM ratio (pull-down/input)
4 | GATGATTGTTCTCCCAGCTGATGAATTCGCAAACTCGAGTAAACAAATTTTCCTAATCTTTCTGTTCAAGCGCCATCTAC | 0.956 RPM ratio (pull-down/input)
5 | GATGATTGTTCTCCCAGCTGATGAATTGTCAACTTCGAGTAAACAAATTTTCCTAATCTTTCTGTTCAAGCGCCATCTAC | 1.31 RPM ratio (pull-down/input)
6 | GATGATTGTTCTCCCAGCTGATGAATTAGATCCATCGAGTAAACAAATTTTCCTAATCTTTCTGTTCAAGCGCCATCTAC | 0.917 RPM ratio (pull-down/input)
7 | GATGATTGTTCTCCCAGCTGATGAATTCTTAGTATCGAGTAAACAAATTTTCCTAATCTTTCTGTTCAAGCGCCATCTAC | 0.963 RPM ratio (pull-down/input)
8 | GATGATTGTTCTCCCAGCTGATGAATTTGAGCGGTCGAGTAAACAAATTTTCCTAATCTTTCTGTTCAAGCGCCATCTAC | 0.767 RPM ratio (pull-down/input)
9 | GATGATTGTTCTCCCAGCTGATGAATTCAAACATTCGAGTAAACAAATTTTCCTAATCTTTCTGTTCAAGCGCCATCTAC | 1.36 RPM ratio (pull-down/input)
10 | GATGATTGTTCTCCCAGCTGATGAATTATGCCAATCGAGTAAACAAATTTTCCTAATCTTTCTGTTCAAGCGCCATCTAC | 1.13 RPM ratio (pull-down/input)
11 | GATGATTGTTCTCCCAGCTGATGAATTCACCTATTCGAGTAAACAAATTTTCCTAATCTTTCTGTTCAAGCGCCATCTAC | 0.929 RPM ratio (pull-down/input)
12 | GATGATTGTTCTCCCAGCTGATGAATTCTGAATATCGAGTAAACAAATTTTCCTAATCTTTCTGTTCAAGCGCCATCTAC | 0.974 RPM ratio (pull-down/input)
13 | GATGATTGTTCTCCCAGCTGATGAATTACTGAAATCGAGTAAACAAATTTTCCTAATCTTTCTGTTCAAGCGCCATCTAC | 1.14 RPM ratio (pull-down/input)
14 | GATGATTGTTCTCCCAGCTGATGAATTTGATTACTCGAGTAAACAAATTTTCCTAATCTTTCTGTTCAAGCGCCATCTAC | 1.56 RPM ratio (pull-down/input)
15 | GATGATTGTTCTCCCAGCTGATGAATTTGCCTTCTCGAGTAAACAAATTTTCCTAATCTTTCTGTTCAAGCGCCATCTAC | 0.966 RPM ratio (pull-down/input)
16 | GATGATTGTTCTCCCAGCTGATGAATTTCGGCTATCGAGTAAACAAATTTTCCTAATCTTTCTGTTCAAGCGCCATCTAC | 0.91 RPM ratio (pull-down/input)
17 | GATGATTGTTCTCCCAGCTGATGAATTACATAGGTCGAGTAAACAAATTTTCCTAATCTTTCTGTTCAAGCGCCATCTAC | 1.09 RPM ratio (pull-down/input)
18 | GATGATTGTTCTCCCAGCTGATGAATTCTCGGGGTCGAGTAAACAAATTTTCCTAATCTTTCTGTTCAAGCGCCATCTAC | 0.778 RPM ratio (pull-down/input)
19 | GATGATTGTTCTCCCAGCTGATGAATTGTGCACGTCGAGTAAACAAATTTTCCTAATCTTTCTGTTCAAGCGCCATCTAC | 1.05 RPM ratio (pull-down/input)
20 | GATGATTGTTCTCCCAGCTGATGAATTGCGATTATCGAGTAAACAAATTTTCCTAATCTTTCTGTTCAAGCGCCATCTAC | 1.22 RPM ratio (pull-down/input)
21 | GATGATTGTTCTCCCAGCTGATGAATTAGCCGCGTCGAGTAAACAAATTTTCCTAATCTTTCTGTTCAAGCGCCATCTAC | 0.832 RPM ratio (pull-down/input)

Row | Sequence | binding signal
22 | GATGATTGTTCTCCCAGCTGATGAATTCATGGGGTCGAGTAAACAAATTTTCCTAATCTTTCTGTTCAAGCGCCATCTAC | 0.836 RPM ratio (pull-down/input)
23 | GATGATTGTTCTCCCAGCTGATGAATTGATCTTTTCGAGTAAACAAATTTTCCTAATCTTTCTGTTCAAGCGCCATCTAC | 1.14 RPM ratio (pull-down/input)
24 | GATGATTGTTCTCCCAGCTGATGAATTTAGTCTCTCGAGTAAACAAATTTTCCTAATCTTTCTGTTCAAGCGCCATCTAC | 0.934 RPM ratio (pull-down/input)
25 | GATGATTGTTCTCCCAGCTGATGAATTTCAGCCATCGAGTAAACAAATTTTCCTAATCTTTCTGTTCAAGCGCCATCTAC | 0.852 RPM ratio (pull-down/input)
26 | GATGATTGTTCTCCCAGCTGATGAATTGTTAGCCTCGAGTAAACAAATTTTCCTAATCTTTCTGTTCAAGCGCCATCTAC | 1.11 RPM ratio (pull-down/input)
27 | GATGATTGTTCTCCCAGCTGATGAATTGCCCGGGTCGAGTAAACAAATTTTCCTAATCTTTCTGTTCAAGCGCCATCTAC | 0.816 RPM ratio (pull-down/input)
28 | GATGATTGTTCTCCCAGCTGATGAATTGTGGGCCTCGAGTAAACAAATTTTCCTAATCTTTCTGTTCAAGCGCCATCTAC | 0.967 RPM ratio (pull-down/input)
29 | GATGATTGTTCTCCCAGCTGATGAATTGCACTGCTCGAGTAAACAAATTTTCCTAATCTTTCTGTTCAAGCGCCATCTAC | 1.06 RPM ratio (pull-down/input)
30 | GATGATTGTTCTCCCAGCTGATGAATTCCGTCAGTCGAGTAAACAAATTTTCCTAATCTTTCTGTTCAAGCGCCATCTAC | 0.812 RPM ratio (pull-down/input)
31 | GATGATTGTTCTCCCAGCTGATGAATTAATCACCTCGAGTAAACAAATTTTCCTAATCTTTCTGTTCAAGCGCCATCTAC | 0.973 RPM ratio (pull-down/input)
32 | GATGATTGTTCTCCCAGCTGATGAATTACAACGGTCGAGTAAACAAATTTTCCTAATCTTTCTGTTCAAGCGCCATCTAC | 1.17 RPM ratio (pull-down/input)
33 | GATGATTGTTCTCCCAGCTGATGAATTACCTTTTTCGAGTAAACAAATTTTCCTAATCTTTCTGTTCAAGCGCCATCTAC | 1.11 RPM ratio (pull-down/input)
34 | GATGATTGTTCTCCCAGCTGATGAATTTTTGAGTTCGAGTAAACAAATTTTCCTAATCTTTCTGTTCAAGCGCCATCTAC | 0.92 RPM ratio (pull-down/input)
35 | GATGATTGTTCTCCCAGCTGATGAATTTGTCGCTTCGAGTAAACAAATTTTCCTAATCTTTCTGTTCAAGCGCCATCTAC | 1.08 RPM ratio (pull-down/input)
36 | GATGATTGTTCTCCCAGCTGATGAATTGATATGGTCGAGTAAACAAATTTTCCTAATCTTTCTGTTCAAGCGCCATCTAC | 1.06 RPM ratio (pull-down/input)
37 | GATGATTGTTCTCCCAGCTGATGAATTGTGTCCGTCGAGTAAACAAATTTTCCTAATCTTTCTGTTCAAGCGCCATCTAC | 0.991 RPM ratio (pull-down/input)
38 | GATGATTGTTCTCCCAGCTGATGAATTAATCAATTCGAGTAAACAAATTTTCCTAATCTTTCTGTTCAAGCGCCATCTAC | 1.05 RPM ratio (pull-down/input)
39 | GATGATTGTTCTCCCAGCTGATGAATTAAACATGTCGAGTAAACAAATTTTCCTAATCTTTCTGTTCAAGCGCCATCTAC | 1.32 RPM ratio (pull-down/input)
40 | GATGATTGTTCTCCCAGCTGATGAATTAACCCGATCGAGTAAACAAATTTTCCTAATCTTTCTGTTCAAGCGCCATCTAC | 0.776 RPM ratio (pull-down/input)
41 | GATGATTGTTCTCCCAGCTGATGAATTAATCTAGTCGAGTAAACAAATTTTCCTAATCTTTCTGTTCAAGCGCCATCTAC | 0.881 RPM ratio (pull-down/input)
42 | GATGATTGTTCTCCCAGCTGATGAATTAGCTGCATCGAGTAAACAAATTTTCCTAATCTTTCTGTTCAAGCGCCATCTAC | 1.23 RPM ratio (pull-down/input)

Row | Sequence | binding signal
43 | GATGATTGTTCTCCCAGCTGATGAATTTAATCCCTCGAGTAAACAAATTTTCCTAATCTTTCTGTTCAAGCGCCATCTAC | 0.85 RPM ratio (pull-down/input)
44 | GATGATTGTTCTCCCAGCTGATGAATTCTCCTCTTCGAGTAAACAAATTTTCCTAATCTTTCTGTTCAAGCGCCATCTAC | 0.801 RPM ratio (pull-down/input)
45 | GATGATTGTTCTCCCAGCTGATGAATTCGTGATGTCGAGTAAACAAATTTTCCTAATCTTTCTGTTCAAGCGCCATCTAC | 1.15 RPM ratio (pull-down/input)
46 | GATGATTGTTCTCCCAGCTGATGAATTGACAGCGTCGAGTAAACAAATTTTCCTAATCTTTCTGTTCAAGCGCCATCTAC | 1.09 RPM ratio (pull-down/input)
47 | GATGATTGTTCTCCCAGCTGATGAATTCCGGTTTTCGAGTAAACAAATTTTCCTAATCTTTCTGTTCAAGCGCCATCTAC | 0.893 RPM ratio (pull-down/input)
48 | GATGATTGTTCTCCCAGCTGATGAATTCCGAATTTCGAGTAAACAAATTTTCCTAATCTTTCTGTTCAAGCGCCATCTAC | 0.833 RPM ratio (pull-down/input)
49 | GATGATTGTTCTCCCAGCTGATGAATTATGCTCATCGAGTAAACAAATTTTCCTAATCTTTCTGTTCAAGCGCCATCTAC | 1.09 RPM ratio (pull-down/input)
50 | GATGATTGTTCTCCCAGCTGATGAATTTTACTGCTCGAGTAAACAAATTTTCCTAATCTTTCTGTTCAAGCGCCATCTAC | 0.888 RPM ratio (pull-down/input)
51 | GATGATTGTTCTCCCAGCTGATGAATTGGTTGTCTCGAGTAAACAAATTTTCCTAATCTTTCTGTTCAAGCGCCATCTAC | 1.05 RPM ratio (pull-down/input)
52 | GATGATTGTTCTCCCAGCTGATGAATTCCGCACATCGAGTAAACAAATTTTCCTAATCTTTCTGTTCAAGCGCCATCTAC | 0.918 RPM ratio (pull-down/input)
53 | GATGATTGTTCTCCCAGCTGATGAATTCGAAATATCGAGTAAACAAATTTTCCTAATCTTTCTGTTCAAGCGCCATCTAC | 0.966 RPM ratio (pull-down/input)
54 | GATGATTGTTCTCCCAGCTGATGAATTTATCATTTCGAGTAAACAAATTTTCCTAATCTTTCTGTTCAAGCGCCATCTAC | 1.29 RPM ratio (pull-down/input)
55 | GATGATTGTTCTCCCAGCTGATGAATTCTTTCGCTCGAGTAAACAAATTTTCCTAATCTTTCTGTTCAAGCGCCATCTAC | 0.866 RPM ratio (pull-down/input)
56 | GATGATTGTTCTCCCAGCTGATGAATTGCCAACATCGAGTAAACAAATTTTCCTAATCTTTCTGTTCAAGCGCCATCTAC | 1.34 RPM ratio (pull-down/input)
57 | GATGATTGTTCTCCCAGCTGATGAATTCGAGCTATCGAGTAAACAAATTTTCCTAATCTTTCTGTTCAAGCGCCATCTAC | 0.841 RPM ratio (pull-down/input)
58 | GATGATTGTTCTCCCAGCTGATGAATTACCACGATCGAGTAAACAAATTTTCCTAATCTTTCTGTTCAAGCGCCATCTAC | 0.951 RPM ratio (pull-down/input)
59 | GATGATTGTTCTCCCAGCTGATGAATTTGAATTATCGAGTAAACAAATTTTCCTAATCTTTCTGTTCAAGCGCCATCTAC | 0.969 RPM ratio (pull-down/input)
60 | GATGATTGTTCTCCCAGCTGATGAATTGAGGGTATCGAGTAAACAAATTTTCCTAATCTTTCTGTTCAAGCGCCATCTAC | 0.925 RPM ratio (pull-down/input)
61 | GATGATTGTTCTCCCAGCTGATGAATTGGGTGTTTCGAGTAAACAAATTTTCCTAATCTTTCTGTTCAAGCGCCATCTAC | 0.993 RPM ratio (pull-down/input)
62 | GATGATTGTTCTCCCAGCTGATGAATTGCCTCGGTCGAGTAAACAAATTTTCCTAATCTTTCTGTTCAAGCGCCATCTAC | 0.887 RPM ratio (pull-down/input)
63 | GATGATTGTTCTCCCAGCTGATGAATTGTTCTTTTCGAGTAAACAAATTTTCCTAATCTTTCTGTTCAAGCGCCATCTAC | 1.69 RPM ratio (pull-down/input)
